T1: RBFOX1 RRM (Homo sapiens, UniProt Q9NWB1 109-208)
T1 sequence: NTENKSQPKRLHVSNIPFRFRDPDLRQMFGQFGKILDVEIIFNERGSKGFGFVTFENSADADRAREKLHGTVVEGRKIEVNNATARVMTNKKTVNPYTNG

B1: CAGGCUC (DNA:RNA)
RNA: GGGAGACCGGAAUUCAGAUUGUCCCAGGCUCUUAAAUCCCGUCGUAGCCACCA
DNA 1: CAATCTGAATTCCGGTCTCCC
DNA 2: TGGTGGCTACGACGGGATT
B2: AGUCUGA (DNA:RNA)
RNA: GGGAGACCGGAAUUCAGAUUGUCCAGUCUGAUUAAAUCCCGUCGUAGCCACCA
DNA 1: CAATCTGAATTCCGGTCTCCC
DNA 2: TGGTGGCTACGACGGGATT
B3: UCUCGCG (DNA:RNA)
RNA: B2 RNA with A25U, G26C, U29G, G30C, A31G
DNA 1: CAATCTGAATTCCGGTCTCCC
DNA 2: TGGTGGCTACGACGGGATT
B4: UCAACUC (DNA:RNA)
RNA: B1 RNA with C25U, A26C, G27A, G28A
DNA 1: CAATCTGAATTCCGGTCTCCC
DNA 2: TGGTGGCTACGACGGGATT
B5: CAGCAAC (DNA:RNA)
RNA: B1 RNA with G28C, C29A, U30A
DNA 1: CAATCTGAATTCCGGTCTCCC
DNA 2: TGGTGGCTACGACGGGATT
B6: UCUCUCC (DNA:RNA)
RNA: B2 RNA with A25U, G26C, G30C, A31C
DNA 1: CAATCTGAATTCCGGTCTCCC
DNA 2: TGGTGGCTACGACGGGATT
B7: AAAUCUU (DNA:RNA)
RNA: B1 RNA with C25A, G27A, G28U, C31U
DNA 1: CAATCTGAATTCCGGTCTCCC
DNA 2: TGGTGGCTACGACGGGATT
B8: CCGUGUA (DNA:RNA)
RNA: B1 RNA with A26C, G28U, C29G, C31A
DNA 1: CAATCTGAATTCCGGTCTCCC
DNA 2: TGGTGGCTACGACGGGATT
B9: GCGUCGC (DNA:RNA)
RNA: B1 RNA with C25G, A26C, G28U, U30G
DNA 1: CAATCTGAATTCCGGTCTCCC
DNA 2: TGGTGGCTACGACGGGATT
B10: UGAUAUC (DNA:RNA)
RNA: B1 RNA with C25U, A26G, G27A, G28U, C29A
DNA 1: CAATCTGAATTCCGGTCTCCC
DNA 2: TGGTGGCTACGACGGGATT
B11: ACUUGGU (DNA:RNA)
RNA: B2 RNA with G26C, C28U, U29G, A31U
DNA 1: CAATCTGAATTCCGGTCTCCC
DNA 2: TGGTGGCTACGACGGGATT
B12: CUAGUGC (DNA:RNA)
RNA: B1 RNA with A26U, G27A, C29U, U30G
DNA 1: CAATCTGAATTCCGGTCTCCC
DNA 2: TGGTGGCTACGACGGGATT
B13: GUAAACG (DNA:RNA)
RNA: GGGAGACCGGAAUUCAGAUUGUCCGUAAACGUUAAAUCCCGUCGUAGCCACCA
DNA 1: CAATCTGAATTCCGGTCTCCC
DNA 2: TGGTGGCTACGACGGGATT
B14: UUUUGAU (DNA:RNA)
RNA: B2 RNA with A25U, G26U, C28U, U29G, G30A, A31U
DNA 1: CAATCTGAATTCCGGTCTCCC
DNA 2: TGGTGGCTACGACGGGATT
B15: UGCAAGA (DNA:RNA)
RNA: B2 RNA with A25U, U27C, C28A, U29A
DNA 1: CAATCTGAATTCCGGTCTCCC
DNA 2: TGGTGGCTACGACGGGATT
B16: UUAGCAA (DNA:RNA)
RNA: B1 RNA with C25U, A26U, G27A, U30A, C31A
DNA 1: CAATCTGAATTCCGGTCTCCC
DNA 2: TGGTGGCTACGACGGGATT
B17: CGCUCAC (DNA:RNA)
RNA: B1 RNA with A26G, G27C, G28U, U30A
DNA 1: CAATCTGAATTCCGGTCTCCC
DNA 2: TGGTGGCTACGACGGGATT
B18: GCGGUCA (DNA:RNA)
RNA: B2 RNA with A25G, G26C, U27G, C28G, G30C
DNA 1: CAATCTGAATTCCGGTCTCCC
DNA 2: TGGTGGCTACGACGGGATT
B19: UGAGUUG (DNA:RNA)
RNA: B2 RNA with A25U, U27A, C28G, G30U, A31G
DNA 1: CAATCTGAATTCCGGTCTCCC
DNA 2: TGGTGGCTACGACGGGATT
B20: UUUGGCC (DNA:RNA)
RNA: B1 RNA with C25U, A26U, G27U, C29G, U30C
DNA 1: CAATCTGAATTCCGGTCTCCC
DNA 2: TGGTGGCTACGACGGGATT
B21: GACGUUA (DNA:RNA)
RNA: B1 RNA with C25G, G27C, C29U, C31A
DNA 1: CAATCTGAATTCCGGTCTCCC
DNA 2: TGGTGGCTACGACGGGATT
B22: GGACCAG (DNA:RNA)
RNA: B13 RNA with U26G, A28C, A29C, C30A
DNA 1: CAATCTGAATTCCGGTCTCCC
DNA 2: TGGTGGCTACGACGGGATT
B23: AUGGUUU (DNA:RNA)
RNA: B1 RNA with C25A, A26U, C29U, C31U
DNA 1: CAATCTGAATTCCGGTCTCCC
DNA 2: TGGTGGCTACGACGGGATT
B24: ACGACAA (DNA:RNA)
RNA: B2 RNA with G26C, U27G, C28A, U29C, G30A
DNA 1: CAATCTGAATTCCGGTCTCCC
DNA 2: TGGTGGCTACGACGGGATT
B25: UAGGACU (DNA:RNA)
RNA: B1 RNA with C25U, C29A, U30C, C31U
DNA 1: CAATCTGAATTCCGGTCTCCC
DNA 2: TGGTGGCTACGACGGGATT
B26: UGCUAUG (DNA:RNA)
RNA: B13 RNA with G25U, U26G, A27C, A28U, C30U
DNA 1: CAATCTGAATTCCGGTCTCCC
DNA 2: TGGTGGCTACGACGGGATT
B27: GAGCGAU (DNA:RNA)
RNA: B1 RNA with C25G, G28C, C29G, U30A, C31U
DNA 1: CAATCTGAATTCCGGTCTCCC
DNA 2: TGGTGGCTACGACGGGATT
B28: UAGAGUA (DNA:RNA)
RNA: B1 RNA with C25U, G28A, C29G, C31A
DNA 1: CAATCTGAATTCCGGTCTCCC
DNA 2: TGGTGGCTACGACGGGATT
B29: AAUGAGA (DNA:RNA)
RNA: B2 RNA with G26A, C28G, U29A
DNA 1: CAATCTGAATTCCGGTCTCCC
DNA 2: TGGTGGCTACGACGGGATT
B30: GCCUUGC (DNA:RNA)
RNA: B2 RNA with A25G, G26C, U27C, C28U, A31C
DNA 1: CAATCTGAATTCCGGTCTCCC
DNA 2: TGGTGGCTACGACGGGATT
B31: CAAAAUA (DNA:RNA)
RNA: B1 RNA with G27A, G28A, C29A, C31A
DNA 1: CAATCTGAATTCCGGTCTCCC
DNA 2: TGGTGGCTACGACGGGATT

Positions count from the first letter of the chain named. This is one part of the list.

In the experiment the target is T1, RBFOX1 RRM. The experiment in a line: EMSA; HiTS-Eq, 1 nM pool, 10 min; buffer printed only for the single-RNA assays: 10 mM Tris pH 7.5, 150 mM NaCl, 3.4 mM EDTA, 0.001% NP-40, 30 C. Particulars: tags: His6 N-terminal (pET28a); label: 5' 32P. In a few lines: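 Purified RbFox RRM (wild type or mutant) was equilibrated for 10 min in 50 µL with 1 nM of a 5′-radiolabelled pool of RNA with 7 randomized nucleotides, its flanks annealed to DNA oligonucleotides, across increasing protein concentrations. Free RNA was separated by 8% native PAGE, excised, reverse-transcribed, PCR-barcoded and sequenced on an Illumina HiSeq 2500. Relative association constants came from read-count changes of each variant against the control reaction, normalised to the cognate motif.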
In general terms: In EMSA bound probe runs differently from free probe, usually more slowly.
As to B1, the binding signal was 0.0127 KA relative to UGCAUGU.

Turning to B2, the binding signal was 0.0129 KA relative to UGCAUGU.

With B3, the binding signal is 0.0139 KA relative to UGCAUGU.

On to B4, for which the binding signal is 0.00152 KA relative to UGCAUGU.

On to B5, for which the binding signal was 0.00628 KA relative to UGCAUGU.

B6: the binding signal was 0.00975 KA relative to UGCAUGU.

B7: the binding signal was 0.00238 KA relative to UGCAUGU.

For B8, the binding signal was 0.0108 KA relative to UGCAUGU.

For the molecule B9, the binding signal was 0.0157 KA relative to UGCAUGU.

Take B10: the binding signal is 0.0132 KA relative to UGCAUGU.

As for B11, the binding signal is 0.0153 KA relative to UGCAUGU.

As for B12, the binding signal is 0.014 KA relative to UGCAUGU.

In the case of B13, the binding signal is 0.00717 KA relative to UGCAUGU.

On to B14, for which the binding signal was 0.0185 KA relative to UGCAUGU.

As for B15, the binding signal is 0.0229 KA relative to UGCAUGU.

For the molecule B16, the binding signal was 0.00742 KA relative to UGCAUGU.

With B17, the binding signal is 0.00648 KA relative to UGCAUGU.

In the case of B18, the binding signal was 0.00871 KA relative to UGCAUGU.

In the case of B19, the binding signal is 0.0276 KA relative to UGCAUGU.

Turning to B20, the binding signal is 0.0184 KA relative to UGCAUGU.

As to B21, the binding signal was 0.00849 KA relative to UGCAUGU.

For the molecule B22, the binding signal is 0.0132 KA relative to UGCAUGU.

For the molecule B23, the binding signal is 0.0146 KA relative to UGCAUGU.

For B24, the binding signal is 0.0016 KA relative to UGCAUGU.

For the molecule B25, the binding signal is 0.00165 KA relative to UGCAUGU.

For B26, the binding signal was 0.0227 KA relative to UGCAUGU.

As for B27, the binding signal is 0.0126 KA relative to UGCAUGU.

For the molecule B28, the binding signal is 0.0123 KA relative to UGCAUGU.

Consider B29, for which the binding signal was 0.00787 KA relative to UGCAUGU.

Take B30: the binding signal was 0.0319 KA relative to UGCAUGU.

On to B31, for which the binding signal was 0.00214 KA relative to UGCAUGU.

Values taken from article PMC9911399, “Two distinct binding modes provide the RNA-binding protein RbFox with extraordinary sequence specificity”.
